The values that follow come from the BET-seq Pho4 binding data (Le et al. 2018).

Some of the results follow. These are noisy estimates, calculated here from bound and input reads.

This assay has as its target T1, Pho4 (S. cerevisiae) (UniProt P07270).
T1 sequence: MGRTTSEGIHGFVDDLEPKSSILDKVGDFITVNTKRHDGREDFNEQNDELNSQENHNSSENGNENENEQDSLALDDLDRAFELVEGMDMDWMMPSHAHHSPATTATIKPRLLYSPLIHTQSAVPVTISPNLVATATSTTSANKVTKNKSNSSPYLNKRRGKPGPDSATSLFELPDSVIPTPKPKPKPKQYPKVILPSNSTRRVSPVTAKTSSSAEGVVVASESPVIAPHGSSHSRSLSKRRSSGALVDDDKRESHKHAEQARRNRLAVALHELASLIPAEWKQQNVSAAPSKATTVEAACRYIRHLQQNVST
The experiment in a line: relative binding free energy (BET-seq); higher = weaker binding. The following applies: reference: library average.
AGTAGCACGTGGCGGG: the “relative binding free energy” value was -0.22 kcal/mol.
The result for GTGTTCACGTGGCCAT reads 0.2 kcal/mol; that for GGGTTCACGTGGAGAA, 0.31 kcal/mol.
The same measure for TTTCGCACGTGTTATA: -0.03 kcal/mol.
The same measure for AGGTTCACGTGTAGGG: 0.2 kcal/mol.
On to TGCAACACGTGTGTTG, for which the “relative binding free energy” value is -0.04 kcal/mol.
The result for TGTAACACGTGAGTCG reads 0.24 kcal/mol; that for GGTTCCACGTGGGCTT, 0.19 kcal/mol.
TTTTACACGTGGCTGT: the “relative binding free energy” value was 0.08 kcal/mol.
Consider ACTGGCACGTGAGATG, for which the “relative binding free energy” value stood at 0.04 kcal/mol.
The result for TGGAACACGTGGTAAG reads 0.01 kcal/mol.
The result for TTGGTCACGTGTGCTG reads 0.07 kcal/mol.
Take TGACTCACGTGTCGGG: the “relative binding free energy” value was found to be 0.19 kcal/mol.
The same measure for TCTGCCACGTGTATGG: 0.09 kcal/mol; for GAGTTCACGTGGTCTT: 0.27 kcal/mol; for GATTTCACGTGGTACA: 0.35 kcal/mol.
The same measure for CGAGGCACGTGTTGTT: -0.08 kcal/mol.
As to ATGTACACGTGGTAGT, the “relative binding free energy” value turned out to be 0.04 kcal/mol.
The same measure for GGGCGCACGTGGGAGC: -0.14 kcal/mol.
The result for CGATTCACGTGTAAGT reads 0.41 kcal/mol.
The result for CTAGTCACGTGGTGTG reads 0.01 kcal/mol.
For GGGTGCACGTGTGTAG, the “relative binding free energy” value was determined as 0.05 kcal/mol.
The result for TTAGGCACGTGATACG reads -0.15 kcal/mol.
The result for TGGGTCACGTGTATGT reads 0.14 kcal/mol; that for ATGCGCACGTGGTGCG, -0.03 kcal/mol.
In the case of GTGGACACGTGTGTCG, the “relative binding free energy” value worked out at 0.15 kcal/mol.
Regarding ATGCGCACGTGAATGG, the “relative binding free energy” value stood at 0.11 kcal/mol.
The same measure for GAATGCACGTGTGGGT: 0.16 kcal/mol; for TTTGGCACGTGATTTA: -0.03 kcal/mol.
Take TAAATCACGTGATGGA: the “relative binding free energy” value was 0.18 kcal/mol.
Regarding GGGTTCACGTGAAGAT, the “relative binding free energy” value amounted to 0.48 kcal/mol.
For the sequence GTAGTCACGTGTGGGC, the “relative binding free energy” value turned out to be 0.23 kcal/mol.
The result for AGTGTCACGTGATACT reads 0.26 kcal/mol.
As to CATGTCACGTGTGAGT, the “relative binding free energy” value is 0.1 kcal/mol.
The result for TAGACCACGTGGGGGC reads -0.14 kcal/mol.
For GGTTGCACGTGTGTAA, the “relative binding free energy” value is -0.04 kcal/mol.
The result for ATGCGCACGTGGAATG reads 0.02 kcal/mol; that for ATTGGCACGTGTAAGC, -0.07 kcal/mol.
The same measure for TTAGGCACGTGCAGAG: -0.16 kcal/mol; for GGGATCACGTGTTTGT: 0.29 kcal/mol.
The result for GTCGGCACGTGGTGTC reads 0 kcal/mol; that for TAAGTCACGTGATTTA, 0.21 kcal/mol.
For CTAGTCACGTGGGATA, the “relative binding free energy” value was -0.02 kcal/mol.
For the sequence CTTCTCACGTGGGTGT, the “relative binding free energy” value came to 0.1 kcal/mol.
The result for TCGTGCACGTGTTTCG reads -0.03 kcal/mol; that for ACGTGCACGTGATGGA, -0.04 kcal/mol.
The result for GTAAACACGTGTGGTT reads 0 kcal/mol; that for CAGTGCACGTGGGGCG, -0.21 kcal/mol; that for AGTGTCACGTGGGGAC, -0.14 kcal/mol.
The same measure for ATGGCCACGTGGAGGT: -0.08 kcal/mol; for ATTTTCACGTGGTGGC: 0.22 kcal/mol.
As to AGGATCACGTGGTCAG, the “relative binding free energy” value is 0.02 kcal/mol.
The same measure for AAAAGCACGTGTGGTC: 0.01 kcal/mol.
The result for CGGGTCACGTGCTATG reads -0.03 kcal/mol.
For GTCGGCACGTGCAGGG, the “relative binding free energy” value is -0.05 kcal/mol.
As to TTGAGCACGTGATAAT, the “relative binding free energy” value was -0.08 kcal/mol.
The result for AGGCACACGTGGTCGG reads -0.08 kcal/mol; that for AGTGGCACGTGAACAG, 0.15 kcal/mol; that for TAATGCACGTGCGAGG, -0.09 kcal/mol.
The result for AGTGACACGTGCGGTC reads -0.05 kcal/mol.
The same measure for TATAGCACGTGGGTAT: -0.25 kcal/mol; for CGTCTCACGTGGTAGT: 0.26 kcal/mol.
Turning to TTGGGCACGTGAACAT, the “relative binding free energy” value came out at 0.14 kcal/mol.
The result for GGGGTCACGTGAGGCT reads 0.3 kcal/mol; that for CATATCACGTGTCGGT, 0.24 kcal/mol.
The same measure for GTTTTCACGTGGGGTG: 0.23 kcal/mol; for TATATCACGTGTTGAA: 0.12 kcal/mol.
The result for TTAGTCACGTGTAGGT reads 0.03 kcal/mol; that for GCTTTCACGTGGGGCG, 0.07 kcal/mol.
ACGGGCACGTGAATGG: the “relative binding free energy” value was 0.19 kcal/mol.
For AATTTCACGTGGATAG, the “relative binding free energy” value came out at 0.32 kcal/mol.
The result for GTGGTCACGTGAGAGT reads 0.37 kcal/mol; that for ATGGGCACGTGGAGTA, -0.17 kcal/mol; that for TGAGTCACGTGGAGCA, 0.14 kcal/mol.
The result for GTTAACACGTGATGTA reads 0.12 kcal/mol; that for ATTTTCACGTGTGATG, 0.29 kcal/mol.
The result for GGTCCCACGTGTGGGT reads 0.15 kcal/mol.
GGGATCACGTGGCCGG: the “relative binding free energy” value was determined as 0.06 kcal/mol.
The same measure for GGTGACACGTGTACAT: 0.27 kcal/mol; for TAGGCCACGTGGATGT: 0.05 kcal/mol; for GAGGGCACGTGTGAAG: 0.01 kcal/mol.
The same measure for GGTAGCACGTGAATTG: 0.2 kcal/mol.
The same measure for AATATCACGTGGGCAT: 0.04 kcal/mol; for TCTAGCACGTGAGGAT: 0.25 kcal/mol; for GCGGGCACGTGGGGCG: -0.11 kcal/mol.
On to TTCGGCACGTGGTTTG, for which the “relative binding free energy” value is -0.26 kcal/mol.
As to CTCGACACGTGGTGGT, the “relative binding free energy” value is -0.07 kcal/mol.
The result for ATTTACACGTGGAAAA reads 0.24 kcal/mol; that for ATCGGCACGTGTAATG, -0.02 kcal/mol.
The same measure for AAGTACACGTGGGTTC: 0.03 kcal/mol; for GGAGCCACGTGTTGGG: -0.06 kcal/mol; for CTGTGCACGTGGGATG: -0.15 kcal/mol.
Turning to TTATACACGTGAGCTT, the “relative binding free energy” value is 0.12 kcal/mol.
The same measure for TGTATCACGTGTACAG: 0.09 kcal/mol; for TCGTCCACGTGGGGTT: -0.11 kcal/mol.
The same measure for CGTTTCACGTGGTTTG: 0.2 kcal/mol; for ATATTCACGTGGGTCG: 0.16 kcal/mol; for AAGTTCACGTGGAAAG: 0.26 kcal/mol.
The result for ATGGTCACGTGCTGGA reads 0.1 kcal/mol; that for CATAGCACGTGTGGGA, -0.03 kcal/mol; that for AGTAACACGTGAGTAT, 0.25 kcal/mol.
As for TGGGACACGTGGCTGC, the “relative binding free energy” value is -0.03 kcal/mol.
The same measure for TGCGCCACGTGTTGTA: -0.06 kcal/mol; for ATGGCCACGTGTGGGT: -0.03 kcal/mol; for ATGGACACGTGTGGTT: 0.11 kcal/mol.
For TAGGGCACGTGTTTAC, the “relative binding free energy” value is -0.22 kcal/mol.
The same measure for CTTCACACGTGGGGTT: -0.14 kcal/mol.
The result for GTTATCACGTGTGCGT reads 0.09 kcal/mol; that for GTTGCCACGTGCTTGT, -0.06 kcal/mol; that for AACTTCACGTGGGTAG, 0.28 kcal/mol.
On to GTGTACACGTGATTTT, for which the “relative binding free energy” value turned out to be 0.24 kcal/mol.
The result for GAATTCACGTGTCAGT reads 0.31 kcal/mol; that for ATTGCCACGTGAGGTT, 0.12 kcal/mol; that for GGCTGCACGTGGGCTT, -0.21 kcal/mol.
The same measure for GGAGGCACGTGAGTCT: 0.27 kcal/mol.
